Test results published in the supplement of paper PMC8728848.
This is one part of the list.

Tests used:
Assay in all cases: glycan array binding signal (z-score within array); higher = stronger binding
Conditions in all cases: glycan notation: IUPAC condensed, linker removed
[1] = target: GlcNAc(a1-4)Gal(b1-3)GlcNAc
Procedure, shortened: (§1)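 Glycan array data were curated from 3228 arrays in the Consortium for Functional Glycomics database and kept only where the protein sequence was available. Glycan names were converted to IUPAC-condensed notation, and columns mapping to the same glycan were averaged. The binding signal is a within-array Z-score, averaged across arrays of the same protein sequence at different concentrations or buffers and across linkers. Negative Z-scores can be read as non-binding.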

[2] = target: GlcNAc(a1-4)Gal(b1-4)GalNAc
Procedure, shortened: as §1

[3] = target: GlcNAc(a1-4)Gal(b1-4)GlcNAc
Procedure, shortened: as §1

[4] = target: GlcNAc(a1-4)Gal(b1-4)GlcNAc(b1-3)Gal(b1-4)Glc
Procedure, shortened: as §1

[5] = target: GlcNAc(a1-4)Gal(b1-4)GlcNAc(b1-3)Gal(b1-4)GlcNAc
Procedure, shortened: as §1

[6] = target: GlcNAc(a1-4)Gal(b1-4)GlcNAc(b1-3)Gal(b1-4)GlcNAc(b1-3)Gal(b1-4)GlcNAc
Procedure, shortened: as §1

[7] = target: GlcNAc(a1-4)Gal(b1-4)GlcNAc(b1-3)Gal(b1-4)[Fuc(a1-3)]GlcNAc(b1-3)Gal(b1-4)[Fuc(a1-3)]GlcNAc
Procedure, shortened: as §1

[8] = target: GlcNAc(a1-6)Gal(b1-4)GlcNAc
Procedure, shortened: as §1

[9] = target: GlcNAc(b1-2)Gal(b1-3)GalNAc
Procedure, shortened: as §1

[10] = target: GlcNAc(b1-2)Man(a1-3)[GlcNAc(b1-2)Man(a1-6)]Man(b1-4)GlcNAc(b1-4)GlcNAc
Procedure, shortened: as §1

[11] = target: GlcNAc(b1-2)Man(a1-3)[GlcNAc(b1-2)Man(a1-6)]Man(b1-4)GlcNAc(b1-4)[Fuc(a1-6)]GlcNAc
Procedure, shortened: as §1

[12] = target: GlcNAc(b1-2)Man(a1-3)[GlcNAc(b1-4)][GlcNAc(b1-2)Man(a1-6)]Man(b1-4)GlcNAc(b1-4)GlcNAc
Procedure, shortened: as §1

[13] = target: GlcNAc(b1-2)Man(a1-3)[GlcNAc(b1-4)][GlcNAc(b1-2)Man(a1-6)]Man(b1-4)GlcNAc(b1-4)[Fuc(a1-6)]GlcNAc
Procedure, shortened: as §1

[14] = target: GlcNAc(b1-2)[GlcNAc(b1-4)]Man(a1-3)[GlcNAc(b1-2)Man(a1-6)]Man(b1-4)GlcNAc(b1-4)GlcNAc
Procedure, shortened: as §1

[15] = target: GlcNAc(b1-2)[GlcNAc(b1-4)]Man(a1-3)[GlcNAc(b1-4)][GlcNAc(b1-2)Man(a1-6)]Man(b1-4)GlcNAc(b1-4)GlcNAc
Procedure, shortened: as §1

[16] = target: GlcNAc(b1-2)[GlcNAc(b1-4)]Man(a1-3)[GlcNAc(b1-4)][GlcNAc(b1-2)[GlcNAc(b1-6)]Man(a1-6)]Man(b1-4)GlcNAc(b1-4)GlcNAc
Procedure, shortened: as §1

[17] = target: GlcNAc(b1-2)[GlcNAc(b1-4)]Man(a1-3)[GlcNAc(b1-4)][GlcNAc(b1-2)[GlcNAc(b1-6)]Man(a1-6)]Man(b1-4)GlcNAc(b1-4)[Fuc(a1-6)]GlcNAc
Procedure, shortened: as §1

[18] = target: GlcNAc(b1-2)[GlcNAc(b1-6)]Man(a1-6)[GlcNAc(b1-2)Man(a1-3)]Man(b1-4)GlcNAc(b1-4)GlcNAc
Procedure, shortened: as §1

[19] = target: GlcNAc(b1-2)[GlcNAc(b1-6)]Man(a1-6)[GlcNAc(b1-2)Man(a1-3)]Man(b1-4)GlcNAc(b1-4)[Fuc(a1-6)]GlcNAc
Procedure, shortened: as §1

[20] = target: GlcNAc(b1-2)[GlcNAc(b1-6)]Man(a1-6)[GlcNAc(b1-4)][GlcNAc(b1-2)Man(a1-3)]Man(b1-4)GlcNAc(b1-4)GlcNAc
Procedure, shortened: as §1

GlcNAc(b1-3)Fuc = target: GlcNAc(b1-3)Fuc
Procedure, shortened: as §1

GlcNAc(b1-3)Gal = target: GlcNAc(b1-3)Gal
Procedure, shortened: as §1

[21] = target: GlcNAc(b1-3)Gal(b1-3)GalNAc
Procedure, shortened: as §1

GlcNAc(b1-3)Gal(b1-4)Glc = target: GlcNAc(b1-3)Gal(b1-4)Glc
Procedure, shortened: as §1

[22] = target: GlcNAc(b1-3)Gal(b1-4)GlcNAc
Procedure, shortened: as §1

[23] = target: GlcNAc(b1-3)Gal(b1-4)GlcNAc(b1-2)Man(a1-3)[GlcNAc(b1-3)Gal(b1-4)GlcNAc(b1-2)Man(a1-6)]Man(b1-4)GlcNAc(b1-4)GlcNAc
Procedure, shortened: as §1

[24] = target: GlcNAc(b1-3)Gal(b1-4)GlcNAc(b1-2)Man(a1-3)[GlcNAc(b1-3)Gal(b1-4)GlcNAc(b1-2)Man(a1-6)]Man(b1-4)GlcNAc(b1-4)[Fuc(a1-6)]GlcNAc
Procedure, shortened: as §1

[25] = target: GlcNAc(b1-3)Gal(b1-4)GlcNAc(b1-2)[GlcNAc(b1-3)Gal(b1-4)GlcNAc(b1-6)]Man(a1-6)[GlcNAc(b1-3)Gal(b1-4)GlcNAc(b1-2)Man(a1-3)]Man(b1-4)GlcNAc(b1-4)GlcNAc
Procedure, shortened: as §1

[26] = target: GlcNAc(b1-3)Gal(b1-4)GlcNAc(b1-3)Gal(b1-4)GlcNAc
Procedure, shortened: as §1

[27] = target: GlcNAc(b1-3)Gal(b1-4)GlcNAc(b1-3)Gal(b1-4)GlcNAc(b1-2)Man(a1-3)[GlcNAc(b1-3)Gal(b1-4)GlcNAc(b1-3)Gal(b1-4)GlcNAc(b1-2)Man(a1-6)]Man(b1-4)GlcNAc(b1-4)GlcNAc
Procedure, shortened: as §1

[28] = target: GlcNAc(b1-3)Gal(b1-4)GlcNAc(b1-3)Gal(b1-4)GlcNAc(b1-2)Man(a1-3)[GlcNAc(b1-3)Gal(b1-4)GlcNAc(b1-3)Gal(b1-4)GlcNAc(b1-2)Man(a1-6)]Man(b1-4)GlcNAc(b1-4)[Fuc(a1-6)]GlcNAc
Procedure, shortened: as §1

[29] = target: GlcNAc(b1-3)Gal(b1-4)GlcNAc(b1-3)Gal(b1-4)GlcNAc(b1-2)[GlcNAc(b1-3)Gal(b1-4)GlcNAc(b1-3)Gal(b1-4)GlcNAc(b1-6)]Man(a1-6)[GlcNAc(b1-3)Gal(b1-4)GlcNAc(b1-3)Gal(b1-4)GlcNAc(b1-2)Man(a1-3)]Man(b1-4)GlcNAc(b1-4)[Fuc(a1-6)]GlcNAc
Procedure, shortened: as §1

[30] = target: GlcNAc(b1-3)Gal(b1-4)GlcNAc(b1-3)Gal(b1-4)GlcNAc(b1-3)Gal(b1-4)GlcNAc(b1-2)Man(a1-3)[GlcNAc(b1-3)Gal(b1-4)GlcNAc(b1-3)Gal(b1-4)GlcNAc(b1-3)Gal(b1-4)GlcNAc(b1-2)Man(a1-6)]Man(b1-4)GlcNAc(b1-4)GlcNAc
Procedure, shortened: as §1

[31] = target: GlcNAc(b1-3)Gal(b1-4)GlcNAc(b1-3)Gal(b1-4)GlcNAc(b1-3)Gal(b1-4)GlcNAc(b1-2)Man(a1-3)[GlcNAc(b1-3)Gal(b1-4)GlcNAc(b1-3)Gal(b1-4)GlcNAc(b1-3)Gal(b1-4)GlcNAc(b1-2)Man(a1-6)]Man(b1-4)GlcNAc(b1-4)[Fuc(a1-6)]GlcNAc
Procedure, shortened: as §1

[32] = target: GlcNAc(b1-3)Gal(b1-4)GlcNAc(b1-3)Gal(b1-4)GlcNAc(b1-3)Gal(b1-4)GlcNAc(b1-2)[GlcNAc(b1-3)Gal(b1-4)GlcNAc(b1-3)Gal(b1-4)GlcNAc(b1-3)Gal(b1-4)GlcNAc(b1-6)]Man(a1-6)[GlcNAc(b1-3)Gal(b1-4)GlcNAc(b1-3)Gal(b1-4)GlcNAc(b1-3)Gal(b1-4)GlcNAc(b1-2)Man(a1-3)]Man(b1-4)GlcNAc(b1-4)[Fuc(a1-6)]GlcNAc
Procedure, shortened: as §1

[33] = target: GlcNAc(b1-3)Gal(b1-4)GlcNAc(b1-3)Gal(b1-4)GlcNAc(b1-3)Gal(b1-4)GlcNAc(b1-3)Gal(b1-4)GlcNAc(b1-2)Man(a1-3)[GlcNAc(b1-3)Gal(b1-4)GlcNAc(b1-3)Gal(b1-4)GlcNAc(b1-3)Gal(b1-4)GlcNAc(b1-3)Gal(b1-4)GlcNAc(b1-2)Man(a1-6)]Man(b1-4)GlcNAc(b1-4)GlcNAc
Procedure, shortened: as §1

[34] = target: GlcNAc(b1-3)Gal(b1-4)GlcNAc(b1-3)Gal(b1-4)GlcNAc(b1-3)Gal(b1-4)GlcNAc(b1-3)Gal(b1-4)GlcNAc(b1-2)Man(a1-3)[GlcNAc(b1-3)Gal(b1-4)GlcNAc(b1-3)Gal(b1-4)GlcNAc(b1-3)Gal(b1-4)GlcNAc(b1-3)Gal(b1-4)GlcNAc(b1-2)Man(a1-6)]Man(b1-4)GlcNAc(b1-4)[Fuc(a1-6)]GlcNAc
Procedure, shortened: as §1

[35] = target: GlcNAc(b1-3)Gal(b1-4)GlcNAc(b1-3)Gal(b1-4)GlcNAc(b1-3)Gal(b1-4)GlcNAc(b1-3)Gal(b1-4)GlcNAc(b1-2)[GlcNAc(b1-3)Gal(b1-4)GlcNAc(b1-3)Gal(b1-4)GlcNAc(b1-3)Gal(b1-4)GlcNAc(b1-3)Gal(b1-4)GlcNAc(b1-6)]Man(a1-6)[GlcNAc(b1-3)Gal(b1-4)GlcNAc(b1-3)Gal(b1-4)GlcNAc(b1-3)Gal(b1-4)GlcNAc(b1-3)Gal(b1-4)GlcNAc(b1-2)Man(a1-3)]Man(b1-4)GlcNAc(b1-4)[Fuc(a1-6)]GlcNAc
Procedure, shortened: as §1

B1: PX9961T-pdi-555-33-555 (Parabacteroides distasonis) (protein)
chain: FDEETAFQSPTLVYVNTVASLYNNMFKIMGNDRHVYDLNTFSSDEAMLPCRIGDWEDGGLWQNIFLHRWGTMNDLTKNSWDFLYEQIGKCNQSVDKLQAFAEEQPDVEYFKVYLEEVRAVRAFFYYELLDLFARVPLVTSSTTPMSEVKQSERSVVFNFVRSELEEALPYLSDNRSNQKGEYYGRITKPVAYMILAKLALNAEVYADDNWTDGNRPAGKNIKFTVDGKEMNAWEATIAYVDKLEALGYKLQGNFSENFAVANETSVENIFTVPMDPVAYPDAKDYNLVRTRHYDHATAYGQSGWNGSCATVKAMNVFKFGTADEDPRCKLTYFTGEVTGPDGKTIYTEWDGQKVPLKYEPNAPKVYMDASDGLLVKTAGARMAKYEFDQNAQDGGNLHGNDCVIFRFADALLMKAEAKIRLGQNGDDEVNQVRNRVGAKPLQNVTLDTLLDERMLELAWEGVRRQDLIRFGKFTEATVDRYVGVKHFASSLDYQEDKTGYTTVFSIYADILSLNPNLTQNPGY
- glycan array binding signal (z-score) [1]: 0.039
- glycan array binding signal (z-score) [2]: -0.4
- glycan array binding signal (z-score) [3]: -0.388
- glycan array binding signal (z-score) [4]: -0.405
- glycan array binding signal (z-score) [5]: -0.402
- glycan array binding signal (z-score) [6]: -0.266
- glycan array binding signal (z-score) [7]: 0.776
- glycan array binding signal (z-score) [8]: -0.246
- glycan array binding signal (z-score) [9]: 0.188
- glycan array binding signal (z-score) [10]: -0.255
- glycan array binding signal (z-score) [11]: 0.514
- glycan array binding signal (z-score) [12]: -0.416
- glycan array binding signal (z-score) [13]: -0.375
- glycan array binding signal (z-score) [14]: 0.085
- glycan array binding signal (z-score) [15]: -0.029
- glycan array binding signal (z-score) [16]: -0.347
- glycan array binding signal (z-score) [17]: -0.051
- glycan array binding signal (z-score) [18]: -0.282
- glycan array binding signal (z-score) [19]: 0.633
- glycan array binding signal (z-score) [20]: -0.004
- glycan array binding signal (z-score) (GlcNAc(b1-3)Fuc): -0.704
- glycan array binding signal (z-score) (GlcNAc(b1-3)Gal): -0.188
- glycan array binding signal (z-score) [21]: 0.567
- glycan array binding signal (z-score) (GlcNAc(b1-3)Gal(b1-4)Glc): -0.25
- glycan array binding signal (z-score) [22]: 0.103
- glycan array binding signal (z-score) [23]: -0.045
- glycan array binding signal (z-score) [24]: 1.18
- glycan array binding signal (z-score) [25]: 0.276
- glycan array binding signal (z-score) [26]: -0.139
- glycan array binding signal (z-score) [27]: 1.51
- glycan array binding signal (z-score) [28]: 0.65
- glycan array binding signal (z-score) [29]: -0.298
- glycan array binding signal (z-score) [30]: -0.569
- glycan array binding signal (z-score) [31]: 0.022
- glycan array binding signal (z-score) [32]: -0.474
- glycan array binding signal (z-score) [33]: -0.198
- glycan array binding signal (z-score) [34]: 0.229
- glycan array binding signal (z-score) [35]: -0.523
